# Source: PubChem BioAssay AID1458 (National Center for Advancing Translational Sciences (NCATS), 2008)
# Hit rate of the full screen: of about 210,000 compounds, about 5,900 (2.8%) were called active. The shares of active, inactive and inconclusive entries below differ from those in the screen. Calls come from the whole dose curve; as a rule, active = well fitted activation curve with a large enough effect; inconclusive = small, poorly fitted or top-dose-only effect; inactive = no such curve, though single readings can be large or run the other way. Potencies beside an inconclusive call are fits to weak or partial responses and may not hold up.
# Test: qHTS Assay for Enhancers of SMN2 Splice Variant Expression; note: nearly all actives have a fitted effect of over 55% in size; for activity change, positive = activation: % of control where 0% means no effect
# Conditions: HEK293 SMN2-luciferase splicing reporter, luminescence, 30-36 h; activity change, positive = activation: at 46.1 µM (top of the series)
# In short: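 HEK293 cells carry an SMN2 […]–luciferase reporter in which exon 7 inclusion puts luciferase in frame. Cells were plated 10-12 h before compound addition, then incubated 30-36 h at 37C. ONE-Glo luminescence was read; sodium butyrate at 4.5 mM final served as control.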
# Potency is the fitted concentration of half-maximal effect; tags give direction and shape of the fitted curve.
Structure (SMILES),Potency,"activity change, positive = activation"
NC(=O)C1CCN(C(=S)c2cccs2)CC1,"inconclusive: 1.41 µM [activator, full curve]",
CCCC(=O)Nc1cccc(-c2nc3cc(C)c(C)cc3o2)c1,"inconclusive: 15.8 µM [activator, single point]",
Cc1cc(C(=O)CSc2nc3ccccc3n2CCC#N)c(C)n1Cc1cccs1,"inconclusive: 0.794 µM [activator, full curve, poor fit]",
Cn1c(Cc2ccccc2)nnc1SCC(=O)NCCc1ccccc1,inactive,
COc1ccc(C2=NN(C(=O)COc3ncnc4ccccc34)C(c3ccco3)C2)cc1 (stereo unspecified),"inconclusive: 35.5 µM [activator, single point]",
O=C(O)CCn1cc(C2CC(c3ccccc3)=NN2c2ccccc2)c(-c2ccccc2)n1 (stereo unspecified),inactive,
C/C(=N/OCO/N=C(/C)c1ccc(F)cc1)c1ccc(F)cc1,active: 8.91 µM,
COc1cc2c(cc1OC)n(CC(=O)Nc1ccc(C)cc1C)c(=O)n1nc(-c3ccccc3)nc21,inactive,
Cc1ccc(NC(=O)CSc2nnc3ccccn23)cc1,"inconclusive: 35.5 µM [activator, single point]",
COc1ccc(-c2ccc(SCC(=O)N3c4ccccc4CC3C)nn2)cc1OC (stereo unspecified),"inconclusive: 7.94 µM [activator, partial curve]",
C=CCc1c(C)c(C#N)c2nc3ccccc3n2c1NCCN(C)C,inactive,
CCOc1ccc(NC(=O)CN(c2cc(C)cc(C)c2)S(=O)(=O)c2c(C)noc2C)cc1,"inconclusive: 0.1 µM [activator, full curve, poor fit]",
Cc1csc(=Nc2ccc(S(=O)(=O)N3CCOCC3)cc2)n1Cc1ccco1,inactive,
CC(Oc1ccccc1F)C(=O)Nc1ccc2ccccc2c1 (stereo unspecified),active: 3.55 µM,
CCC1CCCCN1C(=O)CSc1nnc(-c2ccc(Cl)cc2)o1 (stereo unspecified),inactive,
CC(=O)Oc1ccc2c(=O)c(Oc3ccccc3)coc2c1OC(C)=O,"inconclusive: 15.8 µM [activator, single point]",
COc1ccc2c(c1)c(=O)oc1cc(OCC(=O)NC3CC3)ccc12,"inconclusive: 35.5 µM [activator, single point]",
O=S(=O)(c1cccc2cnccc12)N1CCCNCC1,"inconclusive: 17.8 µM [activator, partial curve, poor fit]",
COc1cccc(NC(=O)c2oc3ccccc3c2NC(C)=O)c1,"inconclusive: 12.6 µM [activator, single point]",
CC(C)CSC1=NSC2=NC(=O)/C(=C\c3ccccc3)C(=N)N12,"inconclusive: 11.2 µM [activator, partial curve, poor fit]",
COc1cccc(-c2cc(C(=O)N3CCCCCC3)no2)c1,active: 3.16 µM,
COc1ccc(N2C(=O)C(CC(=O)Nc3ccc(Cl)cc3)N(Cc3ccc4c(c3)OCO4)C2=O)cc1 (stereo unspecified),inactive,
Cc1ccc(NC(=O)c2ccc(CSc3nnc(C)s3)cc2)cc1,"inconclusive: 2.82 µM [activator, partial curve, poor fit]",

Structure (SMILES),Potency,"activity change, positive = activation"
C#CCSc1nccc(-c2nn(-c3ccc(C)cc3)ccc2=O)n1,"inconclusive: 11.2 µM [activator, partial curve]",
Cc1ccnc(SCC(=O)N2CCN(c3cccc(Cl)c3)CC2)n1,"inconclusive: 0.501 µM [activator, partial curve, poor fit]",
COc1ccc(C(=O)Nc2cc3c(cc2Cl)OCCCO3)cc1,"inconclusive: 15.8 µM [activator, single point]",
Cc1ccccc1Nc1nc(N)nc(CSc2nncn2C)n1,,inconclusive: 35.9% [activator]
CCc1ccccc1NC(=O)CN(C)C(=O)CSc1nc2cc(Cl)ccc2s1,inactive,
CCN(CC(=O)Nc1c(F)cccc1F)C(=O)CCc1c[nH]c2ccccc12,inactive,
CC(C)(C)C1CCc2c(C(=O)NNC(=O)CCC(=O)O)csc2C1 (stereo unspecified),inactive,
O=C(CSc1nnc(-c2ccccc2Br)o1)Nc1cccc2ccccc12,"inconclusive: 35.5 µM [activator, single point]",
Cc1csc(SCC(=O)Nc2ccc3c(c2)OCCO3)n1,"inconclusive: 6.31 µM [activator, partial curve, poor fit]",
Cc1ccc(-c2n[nH]c(=S)n2/N=C/c2ccncc2)cc1,inactive,
CC(=O)c1sc(NC(=O)c2ccc(Cn3cc(Br)cn3)o2)nc1C,"inconclusive: 0.0045 µM [activator, full curve, poor fit]",
O=C(CSc1nc2ccccc2c(=O)n1Cc1ccc(C(=O)NC2CC2)cc1)NCc1ccco1,"inconclusive: 35.5 µM [activator, single point]",
Cc1cccc2c1-c1sc(C(=O)Nc3ccccc3C(N)=O)cc1CO2,"inconclusive: 0.708 µM [activator, full curve, poor fit]",
Cc1cc(C)cc(NC(c2cccc(Cl)c2)c2nnc(-c3ccccc3)o2)c1 (stereo unspecified),inactive,
CCC/C(=N/NC(=O)c1ccc2c(c1)OCO2)c1cccs1,active: 20 µM,
O=C(c1ccccc1C(=O)N1CCN(c2ccccc2F)CC1)N1CCN(c2ccccc2F)CC1,"inconclusive: 0.708 µM [activator, full curve]",
CCCC1Cc2nc(N3CCCCC3)c(C#N)cc2CO1 (stereo unspecified),"inconclusive: 14.1 µM [activator, single point]",
COc1cccc(-c2n[nH]c3c2C(c2cccc(O)c2)N(C)C3=O)c1 (stereo unspecified),"inconclusive: 1.58 µM [activator, partial curve]",
COCCNS(=O)(=O)c1cc(F)ccc1OC,active: 3.16 µM,
COc1ccccc1C(=O)N1CCCC(c2nc(-c3cc(OC)c(OC)c(OC)c3)no2)C1 (stereo unspecified),inactive,
FC(F)(F)Oc1ccc(NC(=S)NCc2ccccc2)cc1,"inconclusive: 4.47 µM [activator, partial curve, poor fit]",
COc1cc(/C=N/OCC(=O)NC2CCCCC2C)ccc1OCc1ccc(Cl)cc1 (stereo unspecified),"inconclusive: 14.1 µM [activator, single point]",
Cn1nnnc1SCC(=O)Nc1nc(-c2ccccc2)c(-c2ccccc2)o1,"inconclusive: 0.0251 µM [activator, full curve]",
